This is an account of results in the antibiotic and cytotoxicity screens of Wong et al. (2023).

Molecules are shown by their SMILES. Some of the results follow.

In the first experiment the test system is HepG2. As to the kind of experiment: cytotoxicity call (relative viability < 0.9). Conditions: 10 µM.
`COc1ccc(CN(C)C[C@H]2Oc3ccc(NS(=O)(=O)c4cn(C)cn4)cc3C(=O)N([C@H](C)CO)C[C@H]2C)cc1`: the cytotoxicity call is “inactive”.
Regarding `COc1ccc2c3c(n(c2c1)C)[C@H](CO)N(Cc1cc(cc(c1)OC)OC)C[C@]13CCN(CC1)C(=O)CN1CCOCC1`, the cytotoxicity call is “inactive”.
Take `C=CCN(CC=C)S(=O)(=O)c1nnc[nH]1`: the cytotoxicity call was “inactive”.
Take `COc1ccccc1CNC(=O)C[C@H]1CC[C@@H]2[C@H](COC[C@H](O)CN2C(=O)Nc2ccc(Cl)cc2)O1`: the cytotoxicity call is “inactive”.
On to `CCCc1ccc2c(c1)CNCCC2`, for which the cytotoxicity call is “inactive”.
As for `COc1ccc(S(=O)(=O)N(C)C[C@@H]2Oc3ccc(NC(=O)CCC(F)(F)F)cc3CC(=O)N([C@H](C)CO)C[C@H]2C)cc1`, the cytotoxicity call was “inactive”.
As for `COCC(=O)Nc1ccc2c(c1)C(=O)N(C)C[C@H](OC)[C@@H](C)CN(C(=O)Cc1cccnc1)[C@H](C)CO2`, the cytotoxicity call was “inactive”.
On the same count and under the same terms, under `CC1=NN(c2ccccc2)C(=O)C1` stands “inactive”.
Consider `COc1ccc(NC(=O)N(C)C[C@@H]2Oc3cc(C#CCN(C)C)ccc3S(=O)(=O)N([C@@H](C)CO)C[C@@H]2C)cc1`, for which the cytotoxicity call is “inactive”.
As for `O=C(Nc1nccs1)[C@@H]1[C@@H](CO)[C@@H]2Cn3c(cccc3=O)[C@@H]2N1C(=O)C1CC1`, the cytotoxicity call was “inactive”.
On the same count and under the same terms, then `C[C@@H]1CN([C@@H](C)CO)C(=O)CCCn2cc(nn2)CO[C@@H]1CN(C)S(=O)(=O)c1ccc(C#N)cc1`, with “inactive”.

In the next experiment the test system is S. aureus RN4220. The experiment is described as follows: growth inhibition call (relative growth <= 0.2). Conditions: 50 µM.
As for `COc1cccc(S(=O)(=O)N(C)C[C@@H]2Oc3cc(C#CCN(C)C)ccc3S(=O)(=O)N([C@H](C)CO)C[C@H]2C)c1`, the growth inhibition call was “inactive”.
Same read-out and setting: under `C[C@@H]1CN([C@@H](C)CO)C(=O)c2cccc(NC(=O)CCCCCC(=O)Nc3ccccc3N)c2O[C@@H]1CN(C)Cc1ccc(-c2ccccc2)cc1` stands “inactive”; under `C[C@H](CO)N1C[C@H](C)[C@@H](CN(C)Cc2ccc(Cl)c(Cl)c2)Oc2ccc(NC(=O)Nc3cccc4ccccc34)cc2C1=O`, “inactive”.
As for `CC(C)NC(=O)Nc1ccc2c(c1)C(=O)N([C@H](C)CO)C[C@H](C)[C@H](CN(C)S(=O)(=O)c1cn(C)cn1)OCCCC[C@H](C)O2`, the growth inhibition call is “inactive”.
On the same count and under the same terms, under `O=C(C[C@H]1CC[C@@H]2[C@H](COC[C@@H](O)CN2S(=O)(=O)c2cccc(F)c2)O1)NCc1ccc2c(c1)OCO2` stands “inactive”; under `NNC(=O)c1ccc(/C=N\O)nc1`, “inactive”; under `COc1ccc2c3c(n(c2c1)C)[C@@H](CO)N(C[C@]13CCN(CC1)C(=O)c1ccccn1)C(=O)c1ccccn1`, “inactive”.
As to `CCC(CO)NCCNC(CC)CO.Cl.Cl` (stereo not given), the growth inhibition call is “inactive”.
Consider `COCC(=O)N(C)C[C@H]1Oc2cc(C#CCC3CCCC3)ccc2S(=O)(=O)N([C@@H](C)CO)C[C@H]1C`, for which the growth inhibition call is “inactive”.
For `CCO[C@@H]1OC(C(=O)N2CCN(Cc3ccccc3)CC2)=C[C@H](c2ccc(Br)cc2)[C@H]1CCCOC(=O)NCCCCCC(=O)NO`, the growth inhibition call was “inactive”.
Same read-out and setting: then `CS(=O)(=O)N1[C@H](C(=O)O)[C@@H](CO)[C@@H]2Cn3c(ccc(-c4ccc(F)cc4)c3=O)[C@@H]21`, with “inactive”; and `COc1ccc(S(=O)(=O)Nc2ccc3c(c2)CC(=O)N([C@H](C)CO)C[C@H](C)[C@@H](CN(C)Cc2ccc(Cl)c(Cl)c2)O3)cc1`, with “inactive”; and `C[C@@H]1CCCCO[C@H](CN(C)S(=O)(=O)c2ccc(F)cc2)[C@@H](C)CN([C@H](C)CO)C(=O)c2cc(NC(=O)Nc3cccc4ccccc34)ccc2O1`, with “inactive”.
As to `Cc1noc(C)c1NC(=O)Nc1cccc2c1O[C@@H](CN(C)C(=O)Nc1ccc(C(F)(F)F)cc1)[C@@H](C)CN([C@@H](C)CO)C2=O`, the growth inhibition call is “inactive”.
Still for that read-out and setting: under `COCCOC(=O)N1C(=O)[C@@]2(c3cc(C#CC4(O)CCCCCC4)ccc31)[C@H](c1ccc(OCCO)cc1)N1[C@H](c3ccccc3)[C@H](c3ccccc3)OC(=O)[C@H]1[C@@H]2C(=O)N1CCN(c2ncccn2)CC1` stands “inactive”; under `COc1ccc(NC(=O)Nc2ccc3c(c2)C(=O)N([C@H](C)CO)C[C@@H](C)[C@@H](CN(C)S(=O)(=O)c2c(C)noc2C)OCCCC[C@H](C)O3)cc1`, “inactive”; under `CO[C@H]1CN(C)C(=O)c2cc(NS(C)(=O)=O)ccc2OC[C@@H](C)N(C(=O)C2CCOCC2)C[C@@H]1C`, “inactive”.
Take `C[C@H]1CN([C@@H](C)CO)C(=O)c2cc(NC(=O)Nc3ccc4c(c3)OCO4)ccc2O[C@H]1CN(C)Cc1ccc(C(F)(F)F)cc1`: the growth inhibition call was “inactive”.
Take `C[C@@H]1CN([C@@H](C)CO)C(=O)c2cc(C3=CCCC3)cnc2O[C@H]1CN(C)C(=O)c1ccc2c(c1)OCO2`: the growth inhibition call is “inactive”.
